Test results: a compilation of properties of binary mixtures (doi:10.1016/j.molliq.2018.12.032)
The densities may have been worked out from excess volumes.

Test: xn = mol fraction of the nth substance listed

## C[P+](c1ccccc1)(c1ccccc1)c1ccccc1.[Br-] + OCCO
293.15 K, 101 kPa, x1 = 0.25
  mass density: 1245 kg/m3
303.15 K, 101 kPa, x1 = 0.25
  mass density: 1238 kg/m3
313.15 K, 101 kPa, x1 = 0.25
  mass density: 1231 kg/m3
323.15 K, 101 kPa, x1 = 0.25
  mass density: 1224 kg/m3
333.15 K, 101 kPa, x1 = 0.25
  mass density: 1217 kg/m3
343.15 K, 101 kPa, x1 = 0.25
  mass density: 1210 kg/m3
353.15 K, 101 kPa, x1 = 0.25
  mass density: 1203 kg/m3

## [Cl-].c1ccc(C[P+](c2ccccc2)(c2ccccc2)c2ccccc2)cc1 + OCCOCCO
293.15 K, 101.3 kPa, x2 = 0.125
  mass density: 1142.7 kg/m3
313.05 K, 101.3 kPa, x2 = 0.125
  mass density: 1132.6 kg/m3
323.11 K, 101.3 kPa, x2 = 0.125
  mass density: 1125.9 kg/m3
333.17 K, 101.3 kPa, x2 = 0.125
  mass density: 1118.9 kg/m3
343.1 K, 101.3 kPa, x2 = 0.125
  mass density: 1112.2 kg/m3
353.16 K, 101.3 kPa, x2 = 0.125
  mass density: 1104.8 kg/m3

## C[P+](c1ccccc1)(c1ccccc1)c1ccccc1.[Br-] + OCCOCCO
303.18 K, 101.3 kPa, x2 = 0.2
  mass density: 1206 kg/m3
313.18 K, 101.3 kPa, x2 = 0.2
  mass density: 1199.2 kg/m3
333.17 K, 101.3 kPa, x2 = 0.2
  mass density: 1185.2 kg/m3
343.16 K, 101.3 kPa, x2 = 0.2
  mass density: 1178.2 kg/m3
353.16 K, 101.3 kPa, x2 = 0.2
  mass density: 1170.9 kg/m3

## [Cl-].c1ccc(C[P+](c2ccccc2)(c2ccccc2)c2ccccc2)cc1 + OCCO
303.15 K, 101 kPa, x1 = 0.083
  mass density: 1128 kg/m3
323.15 K, 101 kPa, x1 = 0.083
  mass density: 1114 kg/m3
333.15 K, 101 kPa, x1 = 0.083
  mass density: 1107 kg/m3
343.15 K, 101 kPa, x1 = 0.083
  mass density: 1100 kg/m3
353.15 K, 101 kPa, x1 = 0.083
  mass density: 1093 kg/m3
